Data as given in the RNAGym collection of RNA variant scans (doi:10.1093/nar/gkz1192).
The source gives no read counts; variants with many changes may rest on few reads.

B1: CPEB3 Ribozyme (parent)
chain: UAACAGGGGGCCACAGCAGAAGCGUUCACGUCGCAGCCCCUGUCAGAUUCUGGUGAAUCUGCGAAUUCUGCUGUAUAUCUC

Variants of: B1
Assay: self-cleavage, relative activity (ratio to wild type); higher = more cleavage; in vitro, sequencing
Method in brief: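 For each CPEB3 ribozyme variant, relative activity is its cleaved/total read fraction divided by the unmutated ribozyme's. Barcoded error-prone PCR libraries were transcribed by T7 RNA polymerase (5 hours, 37°C) and held in DNase I for 15 min before an EDTA stop, with cleavage occurring throughout. Template-switching reverse transcription and Illumina sequencing were used to read the RNAs. A 5-read minimum applied, and results are the mean of three batches.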

Variant | self-cleavage
UAACAGGGGGCCACAGCAGAAGCGCUCACGUCGCUGCCCCUGUCAGGUUCUGGUGAAUCUGCGAGUUCUGCUGUAUAUCCC | 0.09
UAACAGGGGGCCACAGCAGAAGCGCUCACGUCGCUGCCCCUGUCAGGUUCUGGUGAAUCAGCGAAUUCUGCUGAAUAUCUC | 0.15
UAACAGGGGGCCACAGCAGAAGCGCUCACGUCGCUGCCCCUGUCAGUUUCUGGUGAAUCUGCGAAUUCUGCUGUAUAUCUC | 0.16
UAACAGGGGGCCACAGCAGAAGCGCUCACGUCGCUGCCCCUGUCAGAUUCUGGUGAAUCUGCGGAUACUGCUGUAUACCUC | 0.12
UAACAGGGGGCCACAGCAGAAGCGCUCACGUCGCUGCCCCUGUCAGAUUCUGGUGAAUCUGCGUAUUCUGCUGUAUAUCUC | 0.33
UAACAGGGGGCCACAGCAGAAGCGCUCACGUCGCUGCCCCUGUCAGAUUCUGGUGAAUCUGCGUACUCUGCUGUAUAUCUC | 0.18
UAACAGGGGGCCACAGCAGAAGCGCUCACGUCGCUGCCCCUGUCAGAUUCUGGUGAAUCUGCGAGUUCUGCUGUAUAUCUC | 0.13
UAACAGGGGGCCACAGCAGAAGCGCUCACGUCGCUGCCCAUGUCAGAUUCUGGUGAAUCUGCGAAUCCUGCUGUAUAUCUC | 0.13
UAACAGGGGGCCACAGCAGAAGCGCUCACGUCGCUGCCCUUGCCUGAUUCUGGUGAAUCUGCGAGUUCUGCUGUAUAUCUC | 0.11
UAACAGGGGGCCACAGCAGAAGCGCUCACGUCGCUGCCCCUGUAAGAUUCUGGUGAAUCUGCGAAUUCUGCUGUAUAUCUC | 0.22
UAACAGGGGGCCACAGCAGAAGCGCUCACGUCGCUGCCCCUGUCAGAUUCUGGUGAAUCUGCGAAUUCUGCUGUAUAUUUC | 0.15
UAACAGGGGGCCACAGCAGAAGCGCUCACGUCGCUGCCCCAGUCAGAUUCUGGUGAAUCUGCGAAUUUUGCUGUAUAUCUC | 0.06
UAACAGGGGGCCACAGCAGAAGCGCUCACGUCGCUGCCCCUGACAGACUCUGGUGAAUCUGCGAAUUCUGCUGUAUAUCUC | 0.08
UAACAGGGGGCCACAGCAGAAGCGCUCACGUCGCUGCCCCUGCCAGAUUCUGGUGGAUCUGCGAACUCAGCUGUGUAUCUC | 0.04
UAACAGGGGGCCACAGCAGAAGCGCUCACGUCGCUGCCCCUGUCAGAUCGUGGUGAAUCUGCGAAUUCUGCUGUAUAUCUC | 0.1
UAACAGGGGGCCACAGCAGAAGCGCUCACGUCGCUGCCCCUGUCAGAUUCUGGCGAAUCUGCGAAUUCUGCUGUAUAUCUC | 0.17
UAACAGGGGGCCACAGCAGAAGCGCUCACGUCGCUGCCCCUGUCAGAUUCUGGUGAACCUGCGAAUUCUGCCGUAUAUCUC | 0.17
UAACAGGGGGCCACAGCAGAAGCGCUCACGUCGCUGCCCCUGUCAGAUUCUGGUGAAUCUGCGAAUCCUGCUGUAUAUCUC | 0.14
UAACAGGGGGCCACAGCAGAAGCGCUCACGUCGCUGCCCCUGUCAGAUUCUGGUGAAUCUGCGAAUUCCGCUGUAUAUCUC | 0.04
UAACAGGGGGCCACAGCAGAAGCGCUCACGUCGCUGCCCCUGUCAGAUUCUGGUGAAUCUGCGAAUUCUGCUGUAUACCUC | 0.09
UAACAGGGGGCCACAGCAGAAGCGCUCACGUCGCUGCCCCUGUCAGAUUCUGGUGAAUCUGCGAAUUCUGCUGUAUAUCCC | 0.26
UAACAGGGGGCCACAGCAGAAGCGCUCACGUCGCAGCCCCUGUCCGACUCUGGUGAAUCGGCGAAUUCUGCUGUAUAUCCC | 0.15
UAACAGGGGGCCACAGCAGAAGCGCUCACGUCGCAGCCCCUGUCCGAUUCUGGUGAAUCCGCGAAUUCUGCUGUAUACCUC | 0.08

Variant | self-cleavage
UAACAGGGGGCCACAGCAGAAGCGCUCACGUCGCAGCCCCUGUCCGAUUCUGGUGAAUCUGCGAAUUCUGCCGUAUAUCUC | 0.19
UAACAGGGGGCCACAGCAGAAGCGCUCACGUCGCAGCCCCUGUCCGAUUCUGGUGAAUCUGCGAAUUCUGCUGUACACCUC | 0.26
UAACAGGGGGCCACAGCAGAAGCGCUCACGUCGCAGCCCCUGUCGGAUUCUGGUGUAUCUGCGUAUUCUGCUGUAUAUCUC | 0.22
UAACAGGGGGCCACAGCAGAAGCGCUCACGUCGCAGCCCCUGUCGGAUUCUGGUGAUUCUGCGAAUUCUGCUGUAUAUCUC | 0.13
UAACAGGGGGCCACAGCAGAAGCGCUCACGUCGCAGCCCCUGUCGGAUUCUGGUGAAUCUGCGUAUUCUGCUGUAUAUCGC | 0.06
UAACAGGGGGCCACAGCAGAAGCGCUCACGUCGCAGCCCCUGUCGGAUUCUGGUGAAUCUGCGAAUUAUGCUGUAUAUCUC | 0.17
UAACAGGGGGCCACAGCAGAAGCGCUCACGUCGCAGCCCCUGUCGGAUUCUGGUGAAUCUGCGAAUUUUGCUGUAUAUGUC | 0.53
UAACAGGGGGCCACAGCAGAAGCGCUCACGUCGCAGCCCCUGUCGUAUUCUGGUGAAUCUGCGAAUUCUGCUGUAUAUCUC | 0.22
UAACAGGGGGCCACAGCAGAAGCGCUCACGUCGCAGCCCCUGUCGGAUUCAGGUGAAUCUGCGAAUUCCGCUGUAUAUCUC | 0.12
UAACAGGGGGCCACAGCAGAAGCGCUCACGUCGCAGCCCCUGUCGGAUUCCGGUGAAUCUGCGAACUCUGCUGUAUAUCUC | 0.2
UAACAGGGGGCCACAGCAGAAGCGCUCACGUCGCAGCCCCUGUCGGAUUCUGGAGAAUCUGCGAAUUCUGCUGUAUAUCUC | 0.46
UAACAGGGGGCCACAGCAGAAGCGCUCACGUCGCAGCCCCUGUCGGAUUCUGGGGAAUCUGCGAAUUCUGCUGUAUAUCUC | 0.13
UAACAGGGGGCCACAGCAGAAGCGCUCACGUCGCAGCCCCUGUCGGAUUCUGGUGAACCUGCGGAUUCUGCUGUAUGUCUC | 0.07
UAACAGGGGGCCACAGCAGAAGCGCUCACGUCGCAGCCCCUGUCGGAUUCUGGUGAAUCCGCGAACUCUGCUGUAUAUCUC | 0
UAACAGGGGGCCACAGCAGAAGCGCUCACGUCGCAGCCCCUGUCGGAUUCUGGUGAAUCUGCGAAUACUGCUGUAUAUCUC | 0.14
UAACAGGGGGCCACAGCAGAAGCGCUCACGUCGCAGCCCCUGUCGGAUUCUGGUGAAUCUGCGAAUUCAGCUGUACACCUC | 0.06
UAACAGGGGGCCACAGCAGAAGCGCUCACGUCGCAGCCCCUGUCGGAUUCUGGUGAAUCUGCGAAUUCCGCUGUAUAUCUC | 0.17
UAACAGGGGGCCACAGCAGAAGCGCUCACGUCGCAGCCCCUGUCGGAUUCUGGUGAAUCUGCGAAUUCUGCUGUAAGUCUC | 0.39
UAACAGGGGGCCACAGCAGAAGCGCUCACGUCGCAGCCCCUGUCGGAUUCUGGUGAAUCUGCGAAUUCUGCUGUAUAUCAC | 0.49
UAACAGGGGGCCACAGCAGAAGCGCUCACGUCGCAGCCCCUGUCUGGCUCUGGCGAAUCUGCGAAUUCUGCUGUAUAUCUC | 0.13
UAACAGGGGGCCACAGCAGAAGCGCUCACGUCGCAGCCCCUGUCUGGUUCUGGAGAAUCUGCGAAUUCUGCCGUAUAUCUC | 0.17
UAACAGGGGGCCACAGCAGAAGCGCUCACGUCGCAGCCCCUGUCUGUUCCUGGCGAAUCUGCGAAUUCUGCUGUAUAUCUC | 0.05
UAACAGGGGGCCACAGCAGAAGCGCUCACGUCGCAGCCCCUGUCUGUUUCUGGCGAAUCUGCGAAUUCUGCUGUAUAUCUC | 0.14

Variant | self-cleavage
UAACAGGGGGCCACAGCAGAAGCGCUCACGUCGCAGCCCCUGUCUGAUUCUGGUGAAUCUGCGUAUUCUGCCGUAUAUCCC | 0.15
UAACAGGGGGCCACAGCAGAAGCGCUCACGUCGCAGCCCCUGUCUGAUUCUGGUGAAUCUGCGAAUUCUGAUGUAUGUCUC | 0.11
UAACAGGGGGCCACAGCAGAAGCGCUCACGUCGCAGCCCCUGUCUGAUUCUGGUUAAUCUGCGAAUUCUGCAGUAUAUCUC | 0.24
UAACAGGGGGCCACAGCAGAAGCGCUCACGUCGCAGCCCCUGUCUGACUCUGGUGAAUCUGCGAAUUCUGCUGUAUAUCUC | 0.06
UAACAGGGGGCCACAGCAGAAGCGCUCACGUCGCAGCCCCUGUCUGACUCUGGUGAAUCUGCGAAUUCUGCUUUAUAUCUC | 0.25
UAACAGGGGGCCACAGCAGAAGCGCUCACGUCGCAGCCCCUGUCUGACUCUGGUGAAUCAGCGAAUUCUGCCUUAUAUCUC | 0.15
UAACAGGGGGCCACAGCAGAAGCGCUCACGUCGCAGCCCCUGUCUGAUACUGGUGAGUCUGCGAGUUCUGCUGUCUAUCUC | 0.05
UAACAGGGGGCCACAGCAGAAGCGCUCACGUCGCAGCCCCUGUCUGAUCCUGGUGAAUCUGCGAAUUCCGCUGUAUAUCUC | 0.16
UAACAGGGGGCCACAGCAGAAGCGCUCACGUCGCAGCCCCUGUCUGAUUCAGGCGUAUCUGCGAAUUUUGCUGUAUAACUC | 0.11
UAACAGGGGGCCACAGCAGAAGCGCUCACGUCGCAGCCCCUGUCUGAUUCUGGUGAAUCUGCGAAUUCUGCCGUAUAUCUC | 0.2
UAACAGGGGGCCACAGCAGAAGCGCUCACGUCGCAGCCCCUGUCUGAUUCUGGUGAAUCUGCGAAUUCUGCUGUACAUCCC | 0.07
UAACAGGGGGCCACAGCAGAAGCGCUCACGUCGCAGCCCCUGUCAGCUUUUGGUGAAUCUGCGAAUUCUGCUGUAUAUCUC | 0.1
UAACAGGGGGCCACAGCAGAAGCGCUCACGUCGCAGCCCCUGUCAGCUCCUGGUGAAUCUGCGAAUUCUGCAGUAUAUCUC | 0.08
UAACAGGGGGCCACAGCAGAAGCGCUCACGUCGCAGCCCCUGUCAGCUUCCGGUGAAUCUGCGAAUUCUGCUGUAUAUCUC | 0.18
UAACAGGGGGCCACAGCAGAAGCGCUCACGUCGCAGCCCCUGUCAGGUUCUGGUGGAUCUGCGAAUUCUGCUGUAUUUCAC | 0.06
UAACAGGGGGCCACAGCAGAAGCGCUCACGUCGCAGCCCCUGUCAGGUUCUGGUGUAUCUGCGAAUUCUGCUGUAUAUCUC | 0.75
UAACAGGGGGCCACAGCAGAAGCGCUCACGUCGCAGCCCCUGUCAGGUUCUGGUGACUCUGCGAAUUCUGCUGUAUAUCUC | 0.06
UAACAGGGGGCCACAGCAGAAGCGCUCACGUCGCAGCCCCUGUCAGGUUCUCGUGAAUCUGCGAAUUCAGCUGUAUACCUC | 0.13
UAACAGGGGGCCACAGCAGAAGCGCUCACGUCGCAGCCCCUGUCAGGCUCUGGUGAAUCUGCGAAUUCUGCUGUAUAUCUC | 0.19
UAACAGGGGGCCACAGCAGAAGCGCUCACGUCGCAGCCCCUGUCAGGUCCAGGUGAAUCUGCGAAUUCUGCUGUAUAUCUC | 0.22
UAACAGGGGGCCACAGCAGAAGCGCUCACGUCGCAGCCCCUGUCAGGUUCAGGUGAAUCUGCGAGUUCAGCUGUAUAUCUC | 0.08
UAACAGGGGGCCACAGCAGAAGCGCUCACGUCGCAGCCCCUGUCAGGUUCAGGUGAAUCUGCGAAUCCUGCUGUAUAUCUC | 0.12
